In all, about 350,000 compounds went through this assay and about 9,900 (2.8%) were called active. Inconclusive means that the source gave no clear call. Such entries were picked first, then a sample of the others. Calls come from the whole dose curve; as a rule, active = well fitted activation curve with a large enough effect; inconclusive = small, poorly fitted or top-dose-only effect; inactive = no such curve, though single readings can be large or run the other way. No potency is given beside an inconclusive call; the fits are too rough.
Assay: A quantitative high throughput screen for small molecules that induce DNA re-replication in MCF 10a normal breast cells. For activity, positive = re-replication: % of control where 0% means no effect. Note: nearly all actives have a fitted effect of over 50% in size.
Conditions: MCF 10A DNA re-replication, Hoechst nuclear intensity, 48 h; activity, positive = re-replication: at 46.1 µM (top of the series)
Potency is the fitted concentration of half-maximal effect; tags give direction and shape of the fitted curve.

SMILES	activity, positive = re-replication	Potency
CSCCC(NC(=O)COc1ccccc1)C(=O)N(C)CC(=O)Nc1ccc(C)cc1 (stereo unspecified)	inactive: 1.63%	–
C=CCN(c1ccccc1)S(=O)(=O)c1cccc(C(=O)N2CCN(c3ncccn3)CC2)c1	–	inconclusive [activator, partial curve, poor fit]
Cn1c(SCC(=O)c2cc(Cl)c(Cl)s2)nnc1-c1ccco1	–	inconclusive [activator, full curve, poor fit]
COc1ccc(Nc2cc(C)c3c(O)cccc3n2)cc1	–	inconclusive [activator, single point]
Cc1ccc(C2CN=NC23CCc2ccccc2C3=O)cc1 (stereo unspecified)	–	inconclusive [activator, partial curve, poor fit]
O=C(O)CC/C(=N\NC(=O)c1ccncc1)c1ccccc1	–	inconclusive [activator, partial curve, poor fit]
COC(=O)c1ccc(OCC2c3cc(OC)c(OC)cc3CCN2C(C)=O)cc1 (stereo unspecified)	inactive: 4.17%	–
CCOC(=O)CSc1nc2cc(C)ccc2cc1C#N	–	inconclusive [activator, partial curve]
CS(=O)(=O)c1ccc([C@@H](O)[C@@H](COC(=O)CN)NC(=O)C(Cl)Cl)cc1	inactive: -1.45%	–
CC[C@@]1(O)C(=O)OCc2c1cc1n(c2=O)Cc2cc3c([N+](=O)[O-])cccc3nc2-1	inactive: 12.4%	–
O=C(COc1ncnc2ccccc12)NCc1ccco1	–	inconclusive [activator, partial curve, poor fit]
COc1ccc(/C=C/C(=O)c2ccccc2)cc1COc1ccc(F)cc1	–	inconclusive [activator, partial curve]
Cc1ccc(NC(=O)c2cccnc2)c([N+](=O)[O-])c1	–	inconclusive [activator, single point]
COc1ccc(C2=NN(C(C#N)c3ccc(OC)c(OC)c3)C(c3ccccc3)C2)cc1 (stereo unspecified)	–	inconclusive [activator, full curve]
CC(Sc1nnc(-c2cccs2)n1-c1ccccc1)C(=O)NCc1ccc2c(c1)OCO2 (stereo unspecified)	inactive: -11.3%	–
CC(/C=C/c1ccc2c(c1)OCO2)=N\NC(=O)c1cccc([N+](=O)[O-])c1	inactive: -4.56%	–
Cn1ccnc1SCC(=O)c1c[nH]c2ccccc12	inactive: -2.17%	–
NS(=O)(=O)c1cc(C(=O)O)c(NCc2ccco2)cc1Cl	–	inconclusive [activator, single point]
Cc1cc(N2CCOCC2)ccc1/C=C\[N+](=O)[O-]	–	active: 18.4 µM
O=C(NNc1c(F)c(F)cc(F)c1F)c1cc2ccccc2oc1=O	inactive: -8.41%	–
O=c1cc(CNc2cc(C(F)(F)F)cc(C(F)(F)F)c2)nc2sccn12	–	inconclusive [activator, single point]
O=C(O)c1cccc(C(=O)Nc2cccc(NC(=O)C3CCCO3)c2)c1 (stereo unspecified)	–	inconclusive [activator, partial curve, poor fit]
C#CC[N+](C)(C)CC#Cc1ccccc1	inactive: 17.7%	–
CC1(C)C(=O)NCCN1C(=O)CC1C(=O)NCCN1CC(c1ccccc1)c1ccccc1 (stereo unspecified)	–	inconclusive [activator, single point]

SMILES	activity, positive = re-replication	Potency
CC(=O)c1ccc(NC(=O)COC(=O)c2ccccc2Nc2ccccc2)cc1	inactive: 16.1%	–
O=C(Nc1ccc(CSc2ccccc2)cc1)c1ccc(CN2CCOCC2)cc1	–	inconclusive [activator, partial curve]
CCOc1ccccc1NC(=O)C(OC(=O)c1ccccc1O)c1ccccc1 (stereo unspecified)	inactive: 20.7%	–
CC(=O)N1c2ccc(S(=O)(=O)N3CCC(C(=O)NCc4ccc(C)cc4)CC3)cc2CC1C (stereo unspecified)	inactive: 12.2%	–
COc1ccccc1-n1c(SCC(=O)c2ccc(O)cc2O)nc2cc([N+](=O)[O-])ccc21	–	inconclusive [activator, single point]
Cc1occc1C(=O)NC(C)CCc1ccccc1 (stereo unspecified)	–	active: 20.6 µM
COc1ccc(-c2cc3ccc(O)cc3oc2=O)cc1	–	active: 18.4 µM
CCN(CC(=O)Nc1cc(S(=O)(=O)N2CCCCC2)ccc1Cl)Cc1ccccc1	–	inconclusive [activator, partial curve, poor fit]
CCN1CCN(C(=O)C2=C(C(=O)O)CCCC2)CC1	–	inconclusive [activator, single point]
OCC1(CCc2ccccc2)CCN(Cc2ccccc2Cl)CC1	–	inconclusive [activator, single point]
Cc1ccc(NC(=O)CCSc2nnnn2-c2ccc3c(c2)OCO3)cc1C	inactive: 1.11%	–
NC(=S)N1OC[C@@H]2COc3ccc4ccccc4c3[C@@H]21	–	inconclusive [activator, single point]
CCOC(=O)Nc1ccc(OC)c([N+](=O)[O-])c1	–	inconclusive [activator, partial curve, poor fit]
COc1ccc(Nc2ncnc3sc(-c4ccccc4)cc23)cc1	–	inconclusive [activator, single point]
COC(=O)c1sccc1N/N=C/c1ccc(OC)c(OC)c1OC	–	active: 23.1 µM
O=C1N/C(=N\N=C\c2cccs2)SC1Cc1cccc(Cl)c1Cl (stereo unspecified)	–	active: 1.46 µM
OC[C@H]1O[C@@H]2O[C@H]3[C@H](O)[C@@H](O)[C@@H](O[C@H]4[C@H](O)[C@@H](O)[C@@H](O[C@H]5[C@H](O)[C@@H](O)[C@@H](O[C@H]6[C@H](O)[C@@H](O)[C@@H](O[C@H]7[C@H](O)[C@@H](O)[C@@H](O[C@H]1[C@H](O)[C@H]2O)O[C@@H]7CO)O[C@@H]6CO)O[C@@H]5CO)O[C@@H]4CO)O[C@@H]3CO	–	inconclusive [activator, full curve, poor fit]
COC(=O)c1cccc(Cn2c(Cl)c(/C=N/Nc3ccccc3C)sc2=O)c1	–	active: 25.9 µM
COc1cc(OC)cc(-c2c(-c3cccs3)c3cc(-c4ccc(OC)cc4F)ccc3n2C)c1	–	inconclusive [activator, full curve, poor fit]
Nc1ccc(NC(=O)c2ccc(C(=O)Nc3ccc(N)cc3)cc2)cc1	inactive: -1.01%	–
CC(C)CCNC(=O)C1CCC(CNc2c(N3CCCC3)c(=O)c2=O)CC1 (stereo unspecified)	–	inconclusive [activator, partial curve, poor fit]
CCN(CC(=O)NCc1ccc(F)cc1)Cc1nc2ccccc2c(=O)[nH]1	inactive: 0.208%	–
C[C@@H](C(O)c1ccccc1)N(C)C(=O)CCc1ccccc1 (stereo partly specified)	–	inconclusive [activator, full curve, poor fit]
CCCCN(CCCC)C(=O)/C=C/c1cccc([N+](=O)[O-])c1	inactive: -11.5%	–

SMILES	activity, positive = re-replication	Potency
CC(C)(C)c1ccc(/C=C/C(=O)c2ccc(NC3=NCCCS3)cc2)cc1	–	active: 18.4 µM
Cc1ccc(Cl)c(OCC(=O)Nc2ccccc2N2CCCCC2)c1	–	inconclusive [activator, partial curve]
CC1(C)CC2CC(C)(CN2S(=O)(=O)c2ccccc2[N+](=O)[O-])C1 (stereo unspecified)	inactive: 29.9%	–
Cc1ccc(Cl)cc1N1CCN(S(=O)(=O)c2ccc3c(c2)oc(=O)n3C)CC1	inactive: 2.02%	–
Cc1ccc(CNC(=O)CSc2nnc3n2CCCCC3)cc1	inactive: -0.172%	–
COc1ccc(CNc2ncc(-c3ccccc3)n2C)c2ccccc12	–	inconclusive [activator, single point]
COc1ccccc1CN(C)C(=O)COC(=O)c1c(C)noc1C	inactive: 6.61%	–
CCOC(=O)CSC1=C(C#N)C(c2ccc(Cl)cc2)C(C(=O)OC)C(=O)N1 (stereo unspecified)	–	inconclusive [activator, full curve, poor fit]
CC(C)c1nc(N2CCN(C(=O)c3ccco3)CC2)c2c3c(sc2n1)CCCC3	inactive: -2.05%	–
Cc1ccc(Oc2nc(CN3CCOCC3)nc3sc4c(c23)CCC(C)C4)cc1 (stereo unspecified)	–	inconclusive [activator, single point]
COc1ccc(S(=O)(=O)NCC(c2ccc3c(c2)OCO3)N2CCN(C)CC2)cc1OC (stereo unspecified)	inactive: -2.45%	–
COc1cccc(-n2c(C)cc(/C=C3/C(=N)N4C(=NC3=O)SN=C4S(C)(=O)=O)c2C)c1	–	active: 16.4 µM
CN(CC(=O)Nc1cccc(S(=O)(=O)NC2=NCCC2)c1)Cc1ccccc1Cl	inactive: 26.8%	–
N=C(N)SCc1ccc(Cl)c2ccccc12	–	inconclusive [activator, single point]
O=C(NCCc1csc(-c2ccccc2)n1)c1c(F)cccc1Cl	inactive: -0.0085%	–
O=C(Nc1ccc2c(c1)OCO2)c1cccs1	inactive: -5.23%	–
Cc1ccc(-c2nn3c(C)nnc3c3ccccc23)cc1S(=O)(=O)NCCN1CCOCC1	–	inconclusive [activator, full curve, poor fit]
COc1ccc(N2CCN(Cc3nc(N)nc(Nc4ccc(C)c(Cl)c4)n3)CC2)cc1	–	inconclusive [activator, single point]
COc1cc(NC(=O)c2ccc(F)cc2)ccc1NC(=O)c1cc2ccccc2o1	–	inconclusive [activator, partial curve, poor fit]
CCCNC(=O)c1c[nH]c2ccc(S(=O)(=O)N(C)c3ccc(OCC)cc3)cc2c1=O	–	inconclusive [activator, single point]
CCOc1ccccc1C(=O)OCC(=O)Nc1ccc(OC(F)F)cc1	–	inconclusive [activator, partial curve, poor fit]
O=C(O)C1C2CCC(O2)C1C(=O)Nc1cnn(Cc2ccccc2)c1 (stereo unspecified)	inactive: -5.73%	–
Cc1[nH]nc2c1C(c1ccc(-c3ccc(Cl)cc3)o1)C(C#N)=C(N)O2 (stereo unspecified)	–	inconclusive [activator, single point]
